From PubChem BioAssay AID1508624 (National Center for Advancing Translational Sciences (NCATS), 2021)
About 120 (0.25%) of roughly 48,000 compounds were called active. Roughly 4% stayed inconclusive and do not appear here. Calls come from the whole dose curve; as a rule, active = well fitted activation curve with a large enough effect; inconclusive = small, poorly fitted or top-dose-only effect, or another doubt; inactive = no such curve, though single readings can be large or run the other way. This is one part of the list.

Experiment: Primary qHTS for Identification of Small Molecule Activators of Huntingtin-Antisense Promoter Activity; note: nearly all actives have a fitted effect of over 55% in size
Conditions: HEK293 HTT-AS promoter firefly luciferase reporter (activity 0% = vehicle and -100% = no light), 24 h; series mostly up to 57.5 µM; activity change, positive = activation: at the top concentration
In short: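 Firefly luciferase signal from promoter-reporter HEK293 cells was scaled between vehicle (0%) and zero RLU (-100%). Compounds were tested at final concentrations of up to 57.5 uM over 24 h at 37 degrees C. PTC124 at 50 uM final served as control inhibitor.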

Activity change, positive = activation, inactive:
Cn1c(=O)cc(SCC(=O)N2CCN(c3ccc(F)cc3)CC2)c2ccc(Cl)cc21 18.2%
Cc1ccc(Nc2c3c(nc4nncn24)CCC3)cc1C -15.3%
O=C(CN1C(=O)COc2ccc(S(=O)(=O)N3CCOCC3)cc21)NCc1ccc(F)cc1 3.89%
CCOc1cc(S(=O)(=O)n2ccnc2C(C)C)ccc1Cl -10.1%
Cc1ccccc1NC(=O)CCn1cnc2onc(-c3ccc(F)cc3)c2c1=O -37.2%
CCC(C)(C)C1CCc2c(sc(NC(=O)C3c4ccccc4Oc4ccccc43)c2C(N)=O)C1 (stereo unspecified) -19.6%
O=S(=O)(c1ccccc1)c1nc(-c2cccs2)oc1SCc1ccccc1F -2.96%
Cc1ccc(C)c(N2CCN(CCCNC(=O)Cn3ncc4c5ccccc5n(C)c4c3=O)CC2)c1 -25.7%
CCCCC(CC)CNC(=O)C1CCN(S(=O)(=O)c2cccc3nsnc23)CC1 (stereo unspecified) -18%
O=C(O)[C@@H](O)[C@H](O)[C@H](O)[C@@H](O)C(=O)O -7.04%
Cc1ccc(NS(=O)(=O)c2c(C(=O)N3CCC(C)CC3)c(C)n(C)c2C)cc1Cl -23.3%
N#Cc1nc(-c2ccc(COc3ccc(Cl)cc3)o2)oc1N1CCN(c2ccccc2)CC1 -15.4%
CCOc1ccc(NC(=O)CCn2cnc3onc(-c4ccc(F)cc4)c3c2=O)cc1 -14%
Cc1cccc(C)c1NC(=O)Cn1c(=O)n(CC2CCC(C(=O)NCCc3ccccc3)CC2)c(=O)c2ccccc21 (stereo unspecified) -9.95%
CCOC(=O)c1noc2ncnc(Nc3ccc(F)cc3F)c12 -5.17%
CCOC(=O)C1CCN(C(=O)C2CCN(C3=NS(=O)(=O)C(c4ccc(C)cc4)=C3CC)CC2)CC1 -25.6%
O=[N+]([O-])c1cc(-c2nc(-c3ccccc3)no2)ccc1N1CCN(c2ccccc2)CC1 -4.99%
Cc1ccc(CNC(=O)C2CCN(c3nc4ccccc4n(C)c3=O)CC2)cc1 -0.148%
CCOC(=O)CSc1nc2c(sc3ccccc32)c(=O)n1CCc1ccccc1 1.05%
Cn1cc(S(=O)(=O)N2CCCCCC2)cc1C(=O)N1CCN(c2cccc(Cl)c2)CC1 -37.7%
Cc1ccc(NC(=O)Cn2nnc(-c3nc(-c4ccncc4)no3)c2N)cc1 -0.267%
CCCOc1ccc(CNC(=O)C(CC)n2nc(C)c3sc4ccccc4c3c2=O)cc1 (stereo unspecified) -14.7%
CCOc1ccc2nc(C)cc(Nc3ccccc3OCC)c2c1 2.37%
Cc1ccc(Cl)cc1N1CCN(C(=O)CCC(=O)Nc2ccc3nc(N4CCC(C)CC4)cc(C)c3c2)CC1 -13.4%
CC(C)C[C@H](NC(=O)[C@@H](NC(=O)c1cccc(-c2ccccc2)n1)[C@@H](C)O)B(O)O -46.1%
CCOC(=O)c1c(C)oc2nc(C)nc(NCc3ccc(Cl)cc3)c12 -4.79%
